# Assay results reported in PubChem BioAssay (Tox21).
# Several values for one entry are separate records, joined by “and”; a condition that tells them apart may be missing. Identical values can stand only once. The shares of active, inactive and inconclusive entries below differ from those in the screen. For some of these results: A potency beside an inconclusive call is a rough fit, not a confirmed value. Activity calls are given as the source filed them. Unless noted, calls follow the shape of the dose curve; as a rule, active = well fitted curve in the direction sought with a large enough effect in the repeat runs; inconclusive = weak or mixed curves; inactive = no such curve, though single readings can be large; an effect the other way counts as inactive or inconclusive.
# Tests used:
# [1] = qHTS assay to identify small molecule agonists of the estrogen receptor beta (ER-beta) signaling pathway - cell viability counter screen (AID 1259380); also: nearly all actives have a fitted effect of over 30% in size; also: potency is read from the fitted curve at half-maximal effect; as to activity change, negative = cytotoxicity: % is scaled to controls: 0 for no effect and ±100 for the full control effect
# Procedure, shortened: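 Viability of ER-beta-UAS-bla HEK293T cells was determined by CellTiter-Glo luminescence following 16 hr treatment with test compounds at 37C.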
# [2] = qHTS assay to identify small molecule agonists of the progesterone receptor (PR) signaling pathway - cell viability counter screen (AID 1346799; calls by dose curve; also: nearly all actives have a fitted effect of over 45% in size; also: potency is read from the fitted curve at half-maximal effect; as to activity change, negative = cytotoxicity: % is scaled to controls: 0 for no effect and ±100 for the full control effect)
# Procedure, shortened: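 Counter screen in the PR-UAS-bla HEK293T wells (2% charcoal-stripped FBS, 16 h compound exposure at 37 C) after the bla read. CellTiter-Glo added, 30 min at room temperature, luminescence read as cell viability.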
# [3] = biological target: Nuclear receptor subfamily 1 group I member 2 (Homo sapiens) (UniProt O75469); test: Human pregnane X receptor (PXR) small molecule agonists, qHTS assay (AID 1346982); also: nearly all actives have a fitted effect of over 35% in size; also: potency is read from the fitted curve at half-maximal effect; as to activation: % is scaled to controls: 0 for no effect and ±100 for the full control effect
# Procedure, shortened: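 Luminescence (ONE-Glo, 30 min RT) after 24 hr compound exposure of PXR-Luc HepG2 cells; cells rested 5 hr post-plating in 5% charcoal-stripped FBS medium.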
# [4] = biological target: Cytochrome P450 3A4 (Homo sapiens) (UniProt P08684); test: Cytochrome P450 Family 3 Subfamily A Member 4 (CYP3A4) small molecule antagonists: luciferase reporter qHTS assay (AID 1671201); also: nearly all actives have a fitted effect of over 50% in size; also: potency is read from the fitted curve at half-maximal effect
# Procedure, shortened: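 P450-Glo CYP3A4 luminescent assay: compounds preincubated 10 min at room temperature with enzyme and proluciferin substrate, NADPH regeneration added, 1 h room-temperature reaction, stopped with luciferin detection reagent; luminescence read after 20 min. Ketoconazole positive control.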
# [5] = biological target: Estrogen receptor beta (Homo sapiens) (UniProt Q92731); test: qHTS assay to identify small molecule agonists of the estrogen receptor beta (ER-beta) signaling pathway (AID 1259377; active = well fitted activation curve with a large enough effect in the signal ratio in the repeat runs, not every such curve was filed as active; inconclusive = weak or mixed curves, or effect the other way; the % refers to the signal ratio; also: potency is read from the fitted curve at half-maximal effect); details: ER-beta-UAS-bla HEK293T, beta-lactamase FRET ratio, 16 h; activation: at 92.4 µM (top of the series) unless noted
# Procedure, shortened: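 ER-beta-UAS-bla HEK293T cells in medium with 2% charcoal-stripped FBS were exposed to compounds for 16 h at 37C. Beta-lactamase reporter activity was read as fluorescence after 2 h with LiveBLAzer B/G FRET substrate at room temperature.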
# [6] = biological target: Estrogen receptor (Homo sapiens) (UniProt P03372); test: qHTS assay to identify small molecule antagonists of the estrogen receptor alpha (ER-alpha) signaling pathway (AID 743069; active = well fitted curve in the direction sought with a large enough effect in the signal ratio in the repeat runs, not every such curve was filed as active; inconclusive = weak or mixed curves, or effect the other way; inactive = no such curve, though single readings can be large or run the other way; the % refers to the signal ratio; also: potency is read from the fitted curve at half-maximal effect); details: HEK293 ER-alpha-UAS-bla, beta-lactamase ratio, antagonist mode; activity, negative = inhibition: at 69.4 µM (top of the series) unless noted
# Procedure, shortened: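 HEK293 cells stably carrying an ER-alpha-UAS-bla beta-lactamase reporter were pre-cultured overnight in 2% charcoal-stripped FBS medium. Test compounds in DMSO were added together with 17beta-estradiol for 18 hr at 37C. Read-out was fluorescence after 2 hr with LiveBLAzer B/G FRET substrate at room temperature.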
# [7] = biological target: Peroxisome proliferator-activated receptor delta (Homo sapiens) (UniProt Q03181); test: qHTS assay to identify small molecule antagonists of the peroxisome proliferator-activated receptor delta (PPARd) signaling pathway (AID 743215; active = well fitted inhibition curve with a large enough effect in the signal ratio in the repeat runs, not every such curve was filed as active; inconclusive = weak or mixed curves, or effect the other way; inactive = no such curve, though single readings can be large or run the other way; the % refers to the signal ratio;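 also: cells stimulated with agonist L165041 at 300 nM final during compound exposure; % is scaled to controls: 0 for no effect and ±100 for the full control effect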); details: HEK293H PPARd-UAS-bla, beta-lactamase FRET ratio, antagonist, 17 h; ratio activity, negative = inhibition: at 62 µM (top of the series) unless noted
# Procedure, shortened: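 Antagonist-mode beta-lactamase reporter screen: HEK293H cells with UAS-bla under PPARd control, stimulated by 300 nM L165041 (final) alongside test compound for 17 h at 37 C, then FRET fluorescence after 2 h substrate incubation.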
# [8] = biological target: Nuclear receptor subfamily 1 group I member 3 (Homo sapiens) (UniProt Q14994); test: qHTS assay to identify small molecule agonists of the constitutive androstane receptor (CAR) signaling pathway (AID 1224839); also: nearly all actives have a fitted effect of over 15% in size; also: potency is read from the fitted curve at half-maximal effect
# Procedure, shortened: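 HepG2 cells stably co-transfected with hCAR and a CYP2B6-2.2kb luciferase reporter; compounds at 15 concentrations with 0.75 uM PK11195 present. After 24 hr at 37 C, luciferase read by ONE-Glo luminescence.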
# [9] = qHTS assay to identify small molecule agonists of H2AX - cell viability counter screen (AID 1224847; calls by dose curve; also: nearly all actives have a fitted effect of over 30% in size; also: potency is read from the fitted curve at half-maximal effect)
# Procedure, shortened: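 CHO-K1 cells plated overnight at 37C, then exposed 3 h at 37C to compounds at 15 concentrations (0.76% DMSO final). Viability by CellTiter-Glo luminescence after 30 min at room temperature.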
# [10] = qHTS assay to identify small molecule antagonists of the sonic hedgehog signaling (Shh) pathway (AID 1259369; calls by dose curve; also: nearly all actives have a fitted effect of over 45% in size; also: potency is read from the fitted curve at half-maximal effect)
# Procedure, shortened: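 Screening used 3T3Gli1-Luc cells at 2,000 per well, compounds delivered in DMSO, and conditioned medium as agonist stimulus; plates incubated 24hr at 37 C and 5% CO2 before a 30min luciferase step.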
# [11] = qHTS assay for identifying genotoxic compounds that show differential cytotoxicity against isogenic chicken DT40 cell lines with known DNA damage response pathways - Rad54/Ku70 mutant cell line (AID 743015); details: DT40 Rad54/Ku70 mutant viability, CellTiter-Glo, 40 h; activity change, negative = cytotoxicity: at 66.8 µM (top of the series); also: potency is read from the fitted curve at half-maximal effect; nearly all actives have a fitted effect of over 60% in size
# [12] = qHTS assay to identify small molecule antagonists of the vitamin D receptor (VDR) signaling pathway - cell viability counter screen (AID 743225); details: VDR-bla HEK293T viability, CellTiter-Glo luminescence, 16 h; viability change, negative = cytotoxic: at 61 µM (top of the series) unless noted; also: nearly all actives have a fitted effect of over 50% in size; also: potency is read from the fitted curve at half-maximal effect
# Procedure, shortened: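 VDR-UAS-bla HEK 293T cells were plated and incubated 4 h at 37C, then dosed with compound plus 3 nM (final) 1-alpha,25-dihydroxyvitamin D3 for 16 h. After the 2 h beta-lactamase read, viability in the same wells was read as CellTiter-Glo luminescence after 30 min at room temperature.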
# [13] = qHTS assay to identify small molecule antagonists of the progesterone receptor (PR) signaling pathway - cell viability counter screen (AID 1346798); also: nearly all actives have a fitted effect of over 50% in size; also: potency is read from the fitted curve at half-maximal effect
# Procedure, shortened: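 PR-UAS-bla HEK293T cells, 3,000/well in 2% charcoal-stripped FBS medium, dosed with compounds plus R5020 agonist and incubated 16 h at 37C. Viability then measured in the same wells by CellTiter-Glo luminescence after 30 min at RT.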
# [14] = qHTS assay to identify small molecule agonists of the constitutive androstane receptor (CAR) signaling pathway - cell viability counter screen (AID 1224836); also: nearly all actives have a fitted effect of over 45% in size; also: potency is read from the fitted curve at half-maximal effect
# Procedure, shortened: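 HepG2 cells stably carrying hCAR and a CYP2B6-2.2kb reporter; 15-concentration compounds plus PK11195 (final 0.75 uM), 23 hr at 37 C/5% CO2. Viability read by CellTiter-Fluor fluorescence.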
# [15] = qHTS RealTime-Glo MT Cell Viability Assay in HEK293 cells - 16 hour (AID 1224872); also: potency is read from the fitted curve at half-maximal effect; nearly all actives have a fitted effect of over 50% in size
# Procedure, shortened: (§1)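 Viability tracked continuously by luminescence as live cells reduce a prosubstrate for NanoLuc; HEK293 cells preincubated 5 h, compound-treated at 37 C, and read at 0, 8, 16, 24, 32 and 40 h.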
# [16] = qHTS assay for small molecule agonists of the p53 signaling pathway (AID 651631; calls by dose curve; also: % is scaled to controls: 0 for no effect and ±100 for the full control effect; nearly all actives have a fitted effect of over 15% in size); details: HCT-116 p53RE-bla reporter, beta-lactamase FRET ratio, 16 h
# Procedure, shortened: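 HCT-116 cells carrying a beta-lactamase reporter under p53 response elements were dosed with compound for 16 h at 37 °C. LiveBLAzer B/G FRET substrate was then added for 2 h at room temperature, and fluorescence intensity was read to detect pathway agonism.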
# [17] = biological target: Thyrotropin receptor (Homo sapiens) (UniProt P16473); test: qHTS assay to identify small molecule agonists of the thyroid stimulating hormone receptor (TSHR) signaling pathway (AID 1224843; calls by dose curve; also: potency is read from the fitted curve at half-maximal effect; nearly all actives have a fitted effect of over 45% in size); details: TSHR-HEK293 cells, cAMP HTRF, agonist mode, 30 min; activation: at 92.4 µM (top of the series) unless noted
# Procedure, shortened: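 TSHR-expressing HEK293 cells (800 per well) were exposed to compounds for 30 min at room temperature. cAMP was then detected by HTRF competition with cAMP-d2 and anti-cAMP cryptate, read after 1 h at room temperature. Fifteen concentrations, triplicate.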
# [18] = qHTS RealTime-Glo MT Cell Viability Assay in HEK293 cells - 24 hour (AID 1224886); also: nearly all actives have a fitted effect of over 50% in size; also: potency is read from the fitted curve at half-maximal effect
# Procedure, shortened: as §1
# [19] = qHTS assay to identify small molecule agonists of the farnesoid-X-receptor (FXR) signaling pathway - cell viability counter screen (AID 743218); details: FXR-bla HEK293T viability, CellTiter-Glo luminescence, 16 h; viability change, negative = cytotoxic: at 62.6 µM (top of the series); also: nearly all actives have a fitted effect of over 45% in size; also: potency is read from the fitted curve at half-maximal effect
# Procedure, shortened: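 In GeneBLAzer FXR-UAS-bla HEK 293T cells, compounds act for 16 h at 37 C. Cell viability is then scored in the reporter wells by CellTiter-Glo, 30 min at RT, luminescence.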
# [20] = qHTS RealTime-Glo MT Cell Viability Assay in HEK293 cells - 32 hour (AID 1224868)
# Procedure, shortened: as §1
# [21] = activation: at 73.3 µM (top of the series) unless noted
# Tags tell the direction and shape of the fitted curve or compound fluorescence and quenching.
# Chain of UniProt P03372 (P03372 whole entry, looked up): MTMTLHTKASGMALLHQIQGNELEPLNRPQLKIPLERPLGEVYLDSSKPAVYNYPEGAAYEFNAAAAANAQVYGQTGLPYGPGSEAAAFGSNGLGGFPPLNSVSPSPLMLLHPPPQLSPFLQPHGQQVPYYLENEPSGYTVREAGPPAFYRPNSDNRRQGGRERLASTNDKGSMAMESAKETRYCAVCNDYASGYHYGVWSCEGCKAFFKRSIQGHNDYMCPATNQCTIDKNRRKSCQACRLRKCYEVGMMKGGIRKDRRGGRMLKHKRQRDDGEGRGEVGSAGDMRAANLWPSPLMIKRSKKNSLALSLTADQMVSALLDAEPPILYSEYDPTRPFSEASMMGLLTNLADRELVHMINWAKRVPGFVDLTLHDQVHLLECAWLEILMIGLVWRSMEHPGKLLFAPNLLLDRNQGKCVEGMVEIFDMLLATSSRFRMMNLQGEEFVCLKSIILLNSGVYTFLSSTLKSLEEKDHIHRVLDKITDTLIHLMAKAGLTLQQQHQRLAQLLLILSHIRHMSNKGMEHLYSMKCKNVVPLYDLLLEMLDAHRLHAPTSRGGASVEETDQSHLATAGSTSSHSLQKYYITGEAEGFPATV
# Chain of UniProt P08684 (P08684 whole entry, looked up): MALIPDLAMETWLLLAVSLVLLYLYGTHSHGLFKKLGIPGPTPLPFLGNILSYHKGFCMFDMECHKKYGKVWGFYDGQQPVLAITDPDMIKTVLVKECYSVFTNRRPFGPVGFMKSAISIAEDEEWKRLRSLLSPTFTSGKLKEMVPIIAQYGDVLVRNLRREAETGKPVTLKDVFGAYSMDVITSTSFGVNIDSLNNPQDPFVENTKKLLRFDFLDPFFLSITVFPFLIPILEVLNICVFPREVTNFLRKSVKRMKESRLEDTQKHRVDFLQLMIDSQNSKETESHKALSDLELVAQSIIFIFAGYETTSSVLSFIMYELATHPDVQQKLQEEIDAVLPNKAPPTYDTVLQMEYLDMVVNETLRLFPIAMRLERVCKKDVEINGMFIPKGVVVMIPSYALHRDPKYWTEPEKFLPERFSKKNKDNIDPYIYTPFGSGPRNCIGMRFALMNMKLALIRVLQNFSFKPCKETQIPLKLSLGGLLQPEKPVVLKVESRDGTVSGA
# Chain of UniProt O75469 (O75469 whole entry, looked up): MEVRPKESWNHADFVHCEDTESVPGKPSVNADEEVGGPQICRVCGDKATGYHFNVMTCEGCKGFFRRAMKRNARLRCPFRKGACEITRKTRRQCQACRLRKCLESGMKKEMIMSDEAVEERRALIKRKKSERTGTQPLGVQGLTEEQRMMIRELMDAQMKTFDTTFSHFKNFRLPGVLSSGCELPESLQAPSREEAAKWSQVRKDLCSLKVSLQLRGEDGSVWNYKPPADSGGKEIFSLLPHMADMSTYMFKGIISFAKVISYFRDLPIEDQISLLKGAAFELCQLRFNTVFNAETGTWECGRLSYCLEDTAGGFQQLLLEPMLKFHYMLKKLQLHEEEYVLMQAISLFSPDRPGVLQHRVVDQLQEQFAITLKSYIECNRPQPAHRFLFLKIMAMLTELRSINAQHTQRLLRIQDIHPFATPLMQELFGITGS
# Chain of UniProt Q14994 (Q14994 whole entry, looked up): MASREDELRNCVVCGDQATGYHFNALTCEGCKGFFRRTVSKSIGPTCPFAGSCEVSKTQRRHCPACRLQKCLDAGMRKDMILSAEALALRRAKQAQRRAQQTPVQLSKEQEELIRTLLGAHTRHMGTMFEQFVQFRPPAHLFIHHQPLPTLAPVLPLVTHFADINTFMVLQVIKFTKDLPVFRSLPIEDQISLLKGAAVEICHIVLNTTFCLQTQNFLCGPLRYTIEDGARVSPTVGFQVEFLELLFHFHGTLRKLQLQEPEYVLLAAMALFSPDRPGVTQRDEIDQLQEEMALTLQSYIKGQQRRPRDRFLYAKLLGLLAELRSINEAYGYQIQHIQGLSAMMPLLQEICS
# Chain of UniProt Q92731 (Q92731 whole entry, looked up): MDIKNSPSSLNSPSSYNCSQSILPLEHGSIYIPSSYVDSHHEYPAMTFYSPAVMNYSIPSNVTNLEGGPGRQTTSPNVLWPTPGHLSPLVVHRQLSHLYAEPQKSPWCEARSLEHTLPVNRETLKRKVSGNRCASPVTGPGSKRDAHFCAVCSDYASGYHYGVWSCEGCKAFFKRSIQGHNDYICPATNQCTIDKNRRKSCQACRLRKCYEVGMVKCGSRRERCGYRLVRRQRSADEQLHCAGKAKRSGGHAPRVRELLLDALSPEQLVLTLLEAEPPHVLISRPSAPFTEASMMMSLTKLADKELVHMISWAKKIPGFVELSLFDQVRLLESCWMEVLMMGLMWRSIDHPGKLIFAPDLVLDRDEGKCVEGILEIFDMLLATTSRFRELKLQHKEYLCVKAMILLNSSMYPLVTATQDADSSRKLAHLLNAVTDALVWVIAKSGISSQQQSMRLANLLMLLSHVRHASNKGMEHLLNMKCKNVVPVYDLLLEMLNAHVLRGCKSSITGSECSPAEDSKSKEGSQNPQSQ
# Chain of UniProt Q03181 (Q03181 whole entry, looked up): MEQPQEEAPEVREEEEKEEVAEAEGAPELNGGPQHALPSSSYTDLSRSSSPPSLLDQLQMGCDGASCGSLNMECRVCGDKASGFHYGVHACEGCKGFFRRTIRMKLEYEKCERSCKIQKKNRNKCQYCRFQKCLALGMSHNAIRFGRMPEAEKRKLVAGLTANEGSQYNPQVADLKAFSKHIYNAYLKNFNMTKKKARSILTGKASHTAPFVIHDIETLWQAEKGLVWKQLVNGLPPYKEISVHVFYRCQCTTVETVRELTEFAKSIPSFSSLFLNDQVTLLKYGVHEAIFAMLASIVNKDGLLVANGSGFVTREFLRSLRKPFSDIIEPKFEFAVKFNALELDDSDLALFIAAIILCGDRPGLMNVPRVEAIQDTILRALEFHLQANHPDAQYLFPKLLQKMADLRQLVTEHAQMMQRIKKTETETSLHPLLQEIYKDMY
# Chain of UniProt P16473 (P16473 whole entry, looked up): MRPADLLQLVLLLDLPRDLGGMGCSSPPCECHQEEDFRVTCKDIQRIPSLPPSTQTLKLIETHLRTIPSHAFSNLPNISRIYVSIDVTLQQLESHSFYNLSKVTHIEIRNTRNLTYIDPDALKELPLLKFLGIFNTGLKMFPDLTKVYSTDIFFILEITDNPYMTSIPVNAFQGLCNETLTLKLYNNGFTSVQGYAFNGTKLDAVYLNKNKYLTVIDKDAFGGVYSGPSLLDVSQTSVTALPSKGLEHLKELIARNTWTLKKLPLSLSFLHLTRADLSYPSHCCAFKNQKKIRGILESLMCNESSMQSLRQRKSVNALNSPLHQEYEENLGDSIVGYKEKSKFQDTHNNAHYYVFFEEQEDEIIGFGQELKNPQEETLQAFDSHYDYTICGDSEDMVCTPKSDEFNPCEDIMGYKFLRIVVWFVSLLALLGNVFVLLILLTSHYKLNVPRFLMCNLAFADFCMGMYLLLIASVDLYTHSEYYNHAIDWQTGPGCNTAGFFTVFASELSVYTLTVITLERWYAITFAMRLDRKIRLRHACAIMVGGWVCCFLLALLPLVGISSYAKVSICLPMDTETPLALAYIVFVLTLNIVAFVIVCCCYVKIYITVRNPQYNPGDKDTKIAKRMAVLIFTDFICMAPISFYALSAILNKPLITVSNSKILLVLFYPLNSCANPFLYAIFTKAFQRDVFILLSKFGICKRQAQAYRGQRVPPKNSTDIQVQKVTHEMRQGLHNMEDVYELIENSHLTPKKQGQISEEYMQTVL
structure (smiles),measurement,setting,value
CCCBr,Potency,[1],inactive
same,Potency,[2],inactive
same,Potency,[3],inactive
same,Potency,[4],"inconclusive: 30.4 µM [inhibitor, partial curve, poor fit]"
O=c1[nH]oc2c1CCNC2,Potency,[5],inactive
same,Potency,[1],"inconclusive: 29.8 µM [rising, single point]"
same,Potency,[4],inactive
O=C(Nc1ccccc1)c1ccccc1I,Potency,[6],"inconclusive: 17.4 µM [activator, partial curve]"
same,"ratio activity, negative = inhibition",[7],inconclusive: -23.3%
same,Potency,[8],active: 61.1 µM
same,Potency,[9],"inconclusive: 22.5 µM [cytotoxic, full curve]"
same,Potency,[10],"inconclusive: 6.86 µM [inhibitor, full curve]"
same,Potency,[1],"inconclusive: 77 µM [cytotoxic, single point]"
same,Potency,[3],active: 68.6 µM
CS(=O)(=O)NC(=O)c1cc(Oc2ccc(C(F)(F)F)cc2Cl)ccc1[N+](=O)[O-],Potency,[11],"inconclusive: 74.3 µM [rising, partial curve, poor fit]"
same,Potency,[12],inactive
same,Potency,[10],inactive
same,activation,[5],inconclusive: 21.2%
Oc1ccc(I)cc1,Potency,[10],"inconclusive: 10.9 µM [inhibitor, full curve]"
same,Potency,[5],"inconclusive: 48.6 µM [activator, partial curve]"
same,Potency,[13],inactive
O=[N+]([O-])c1cccc2c([N+](=O)[O-])cccc12,Potency,[14],"inconclusive: 68.9 µM [cytotoxic, single point]"
same,Potency,[8],"inconclusive: 61.4 µM [activator, partial curve]"
same,Potency,[9],"inconclusive: 114 µM [cytotoxic, single point]"
same,Potency,[15],"inconclusive: 55.2 µM [cytotoxic, single point]"
same,Potency,[10],inactive
same,Potency,[5],"inconclusive: 21.8 µM [rising, partial curve, poor fit]"
same,Potency,[1],active: 10.9 µM
same,Potency,[13],"inconclusive: 27.4 µM [cytotoxic, single point]"
same,Potency,[2],"inconclusive: 68.9 µM [rising, single point]"
CCCSP(=S)(OCC)Oc1ccc(SC)cc1 (stereo not drawn),Potency,[16]; [21],inactive
same,"ratio activity, negative = inhibition",[7],inconclusive: 0.367%
same,Potency,[17],active: 19.3 µM
same,Potency,[2],inactive
same,Potency,[4],active: 3.17 µM
CCNC(=O)NC(=O)/C(C#N)=N/OC,Potency,[12],inactive
same,Potency,[8],inactive
same,Potency,[3],"inconclusive: 77 µM [activator, partial curve, poor fit]"
CCOc1ccc(N)cc1,Potency,[6],inactive
same,Potency,[12],"inconclusive: 24.6 µM [cytotoxic, single point]"
same,Potency,[8],"inconclusive: 68.7 µM [activator, partial curve, poor fit]"
same,Potency,[1],"inconclusive: 77.1 µM [cytotoxic, single point]"
same,Potency,[13],inactive
C=CC#N,Potency,[12],inactive
same,Potency,[18],inactive
same,Potency,[10],"inconclusive: 639 nM [inhibitor, single point] and inactive"
same,Potency,[1],"inconclusive: 28.6 µM [rising, single point]"
CNc1cnn(-c2cccc(C(F)(F)F)c2)c(=O)c1Cl,Potency,[11],"inconclusive: 68.6 µM [cytotoxic, single point]"
same,Potency,[19],inactive
same,activation,[5],inconclusive: 10.2%
same,Potency,[4],"inconclusive: 20 µM [inhibitor, full curve]"
CC(C)OC(=O)Nc1ccccc1,activation,[16]; [21],inconclusive: -2.73%
same,activation,[16]; at 73.3 µM (top of the series),inactive: 2.44%
same,Potency,[14],inactive
same,Potency,[8],"inconclusive: 61.3 µM [activator, single point] and inconclusive: 30.6 µM [activator, partial curve]"
same,Potency,[9],inactive
same,Potency,[3],"inconclusive: 61.3 µM [activator, single point]"
O=C=NC1CCCCC1,Potency,[19],"inconclusive: 0.0437 µM [rising, full curve, poor fit]"
same,Potency,[5],inactive
same,Potency,[13],"inconclusive: 0.244 µM [cytotoxic, single point]"
Nc1ccc2ccccc2c1,Potency,[11],"inconclusive: 61.1 µM [cytotoxic, single point]"
same,Potency,[20],"inconclusive: 49 µM [rising, single point]"
same,Potency,[18],inactive
same,Potency,[5],"inconclusive: 61.1 µM [fluorescent, single point]"
same,activation,[5],inconclusive: 0.284%
same,Potency,[1],"inconclusive: 66.2 µM [cytotoxic, partial curve, poor fit]"
same,Potency,[4],active: 19.3 µM and active: 17.8 µM
CCC1COC(Cn2cncn2)(c2ccc(Cl)cc2Cl)O1 (stereo not drawn),Potency,[8],"inconclusive: 61.1 µM [activator, partial curve]"
same,Potency,[9],"inconclusive: 45 µM [cytotoxic, full curve]"
same,Potency,[20],"inconclusive: 24.5 µM [cytotoxic, partial curve]"
same,Potency,[15],"inconclusive: 43.6 µM [cytotoxic, partial curve, poor fit]"
same,Potency,[18],"inconclusive: 24.5 µM [cytotoxic, partial curve]"
same,Potency,[10],active: 54.5 µM
